Experimental data as given in a compilation of properties of binary mixtures (doi:10.1016/j.sjme.2017.07.002).
Some of these densities may be calculated back from excess volumes.

Assay: xn = mol fraction of the nth substance listed
Settings: 100 kPa

OCC(F)(F)F + CCCC[n+]1ccn(C)c1.F[P-](F)(F)(F)(F)F
mass density [kg/m3]
Settings	288.15 K	293.15 K	303.15 K	313.15 K	323.15 K	333.15 K
x1 = 0.109	1377	1373	1364	1355	1347	1338
x1 = 0.202	–	1373	1364	1355	1347	–
x1 = 0.304	1379	–	1365	–	1347	1338
x1 = 0.401	1380	1376	–	–	1347	1337
x1 = 0.52	1383	1377	1367	1357	1347	1336
x1 = 0.634	–	1380	–	1357	1347	1336
x1 = 0.704	1388	1382	1370	–	1347	–
x1 = 0.798	1392	1385	1372	1359	1346	–
x1 = 0.9	1397	1390	–	1361	1346	1331
x1 = 0.95	1399	1392	1376	–	1344	–
x1 = 1	1400	1391	1374	1356	1338	1319

CCCC[n+]1ccn(C)c1.F[P-](F)(F)(F)(F)F + OCC(F)(F)F
x2 = 0
Settings	mass density [kg/m3]
288.15 K	1377
293.15 K	1372
313.15 K	1355
323.15 K	1347
333.15 K	1338
